Measurements as given in patent publication US20250387505A1, “ANTI-FGFR3 ANTIBODY CONJUGATE AND MEDICAL USE THEREOF” (GENEQUANTUM HEALTHCARE (SUZHOU) CO., LTD., priority 2022, published 2025).

System: AMB-BT-0050T cells (positive FGFR3 expression)
Assay: Cell binding analysis by flow cytometry
Format: cell-based, human
Details: FIG. 6.1
Procedure: 1) The cell surface binding efficiency of anti-FGFR3 antibodies were analyzed using flow cytometry. About 3.0×10^5 to 5.0×10^5 FGFR3-overexpressing or FGFR3 non-expression cells were incubated with anti-FGFR3 antibodies at 4° C. for 1 h. After washing twice with Flow Cytometry Staining Buffer, the cells were stained with the goat anti-human IgG cross-adsorbed secondary antibody conjugated with Alexa Fluor 488 (Invitrogen, A-11013, Carlsbad, CA, USA) diluted 1:200 in staining buffer at 4° C. for 30 min. Mean fluorescence intensity was analyzed by flow cytometry.
The results of this analysis are shown in FIGS. 5 and 6.1, wherein AMB-BT-0050T is a cell with positive FGFR3 expression, while AMB-BT-0013T is a cell with negative FGFR3 expression. AMB-BT-0050T, AMB-BT-0013T is sampled from patients suffering brain cancer (glioblastoma).

B1: A9Q (antibody)
heavy: EVQLLESGGGLVQPGGSLRLSCAASGFTFSSYDMSWVRQAPGKGLEWVSGIYSGDGSIYYADSVKGRFTISRDNSKNTLYLQMNSLRAEDTAVYYCAKDGPMNEESRFDYWGQGTLVTVSS[human IgG1 constant region not written out]
light: QSVLTQPPSASGTPGQRVTISCSGSSSNIGNNYVSWYQQLPGTAPKLLIYADSKRPSGVPDRFSGSKSGTSASLAISGLRSEDEADYYCASWDYSLSGYVFGGGTKLTVLGQPKAAPSVTLFPPSSEELQANKATLVCLISDFYPGAVTVAWKADSSPVKAGVETTTPSKQSNNKYAASSYLSLTPEQWKSHRSYSCQVTHEGSTVEKTVAPTECGALPETGG
binding to AMB-BT-0050T cells: bind to AMB-BT-0050T cells
